Measured values published in PubChem BioAssay AID504339 (National Center for Advancing Translational Sciences (NCATS), 2011).
Among all 390,000 compounds or so, about 17,000 (4.4%) were called active. Inconclusive results, whose numbers are uncertain, are shown with a selection of clear calls. Calls come from the whole dose curve; as a rule, active = well fitted inhibition curve with a large enough effect; inconclusive = small, poorly fitted or top-dose-only effect; inactive = no such curve, though single readings can be large or run the other way. Where the call is inconclusive, the potency comes from a doubtful curve fit.

target: Lysine-specific demethylase 4A (Homo sapiens) (UniProt O75164); experiment: qHTS Assay for Inhibitors of JMJD2A-Tudor Domain; details: AlphaScreen JMJD2A-Tudor / H3K4me3 peptide binding; activity change, negative = inhibition: at 114 µM (top of the series); note: nearly all actives have a fitted effect of over 50% in size
% is set by controls: 0 for no effect and ±100 for the full control effect; potency is the fitted concentration of half-maximal effect; tags give direction and shape of the fitted curve.

Chain of UniProt O75164 (O75164 whole entry, looked up, the tested form may be a part): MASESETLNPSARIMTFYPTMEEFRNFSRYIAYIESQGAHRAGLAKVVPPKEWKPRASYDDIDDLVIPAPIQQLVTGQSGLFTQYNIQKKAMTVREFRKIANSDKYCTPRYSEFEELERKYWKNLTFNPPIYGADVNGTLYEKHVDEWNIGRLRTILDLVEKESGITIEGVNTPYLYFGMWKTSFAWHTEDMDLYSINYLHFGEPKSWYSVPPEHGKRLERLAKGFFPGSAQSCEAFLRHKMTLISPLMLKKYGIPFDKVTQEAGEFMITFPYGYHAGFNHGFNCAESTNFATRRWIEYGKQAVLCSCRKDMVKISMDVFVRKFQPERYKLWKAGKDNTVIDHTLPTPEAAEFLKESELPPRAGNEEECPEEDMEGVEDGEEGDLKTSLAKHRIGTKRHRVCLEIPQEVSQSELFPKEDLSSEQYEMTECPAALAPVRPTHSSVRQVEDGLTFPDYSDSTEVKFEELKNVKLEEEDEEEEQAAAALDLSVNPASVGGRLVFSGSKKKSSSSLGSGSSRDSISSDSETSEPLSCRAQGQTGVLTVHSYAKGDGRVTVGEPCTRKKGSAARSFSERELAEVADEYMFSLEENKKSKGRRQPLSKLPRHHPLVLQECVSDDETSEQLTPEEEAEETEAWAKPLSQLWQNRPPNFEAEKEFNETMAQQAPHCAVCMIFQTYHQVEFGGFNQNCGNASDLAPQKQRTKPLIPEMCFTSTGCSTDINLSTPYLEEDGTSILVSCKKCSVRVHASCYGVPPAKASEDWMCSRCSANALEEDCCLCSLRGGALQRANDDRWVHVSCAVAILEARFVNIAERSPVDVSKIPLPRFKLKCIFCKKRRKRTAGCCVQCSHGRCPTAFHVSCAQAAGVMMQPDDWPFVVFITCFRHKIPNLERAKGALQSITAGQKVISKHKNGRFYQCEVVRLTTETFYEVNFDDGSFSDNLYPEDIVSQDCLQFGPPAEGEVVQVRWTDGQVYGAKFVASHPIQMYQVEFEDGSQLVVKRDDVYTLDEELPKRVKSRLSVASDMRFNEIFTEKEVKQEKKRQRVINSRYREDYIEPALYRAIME

Activity change, negative = inhibition, inconclusive:
c1ccn2cc(-c3ccc4c(c3)OCO4)cc2c1 -42% [inhibitor]

Activity change, negative = inhibition, inactive:
COc1ccc(C(=O)NCCc2csc(-c3ccc(Cl)cc3)n2)c(OC)c1 -4.47%
Cc1cc(OC(=O)c2cc(Br)ccc2Cl)c([N+](=O)[O-])c(=O)[nH]1 -14.5%
COc1ccc(NC(=O)C(NS(=O)(=O)c2cccc3nsnc23)C(C)C)cc1OC (stereo not drawn) -27.9%
COc1ccc(NC(=O)CSc2nnc(C)n2C2CCCCC2)cc1 -11%
COc1c2c(cc3c1C(CC(O)Cc1ccccc1)N(C)CC3)OCO2 (stereo not drawn) -33.1%
COc1ccc(CCNC(=O)CN(c2ccccc2)S(=O)(=O)N(C)C)cc1 -8.25%
COc1ccccc1-c1nn(CCC(=O)Nc2ccccc2)c2nc(C)cc(C)c12 -10.4%
CCOc1ccc(NC(=O)C(C)n2c(=O)cc(-c3ccccc3)c3c(C)nn(C)c32)cc1 (stereo not drawn) -12.7%
CCc1ccccc1NC(=O)NNS(=O)(=O)c1cc(C)ccc1C -14.4%
O=C(Nc1ccc(-n2cnnn2)cc1)c1cn2ccccc2n1 -8.36%
CCOC(=O)c1ccc(NC(=O)C2=C(C)C(=O)OC23CCN(C(C)=O)CC3)cc1 -13.2%
O=C(N[C@@H](Cc1ccc(O)cc1)C(=O)O)c1ccc(C(F)(F)F)cc1 -11.3%
O=C1C(=O)N(C2CCNCC2)CCN1Cc1ccccc1 -15.9%
Cc1cccc(C)c1NC(=O)CCCn1c(=O)c2cccn2c2ccccc21 -18.4%
Cc1ccc(S(=O)(=O)Nc2cc(NC(=O)CN3CCOCC3)ccc2Cl)cc1 -18.9%
CCOC(=O)c1cnc(-n2nc(C)cc2C)nc1NC -34.3%
O=C(Oc1cccccc1=O)c1ccccc1 -29.4%
O=C(Nc1cccc2cccnc12)c1ccc(-c2cccc(Cl)c2)o1 -8.21%
C=CCSc1n[nH]c(-c2ccc(OCCC)cc2)n1 -1.92%
O=[N+]([O-])c1cccnc1NCCc1c[nH]c2ccccc12 -1.42%
Cc1cc2c(s1)c1cnn(Cc3c(Cl)ccc(C)c3F)c(=O)c1n2C -26.7%
Cc1cc(Cl)ccc1OC(C)C(=O)Nc1ccc(C(=O)Nc2ccccc2C(=O)O)cc1 (stereo not drawn) -19.9%
CC(=O)N1N=C(c2ccccc2OC(=O)/C=C/c2ccccc2)CC1c1ccccc1 (stereo not drawn) -26.4%
Cc1ccnc(Nc2nc3ccccc3o2)n1 -25.2%
COc1cc(NC(=O)CN2C(=O)COc3ccc(S(=O)(=O)NC4CCCC4)cc32)cc(OC)c1 -2.31%

Potency, inconclusive:
CCc1n(CC(O)COCc2ccccc2)c2ccccc2[n+]1C (stereo not drawn) 39.8 µM [inhibitor, single point]
CCOC(=O)c1c(CSc2ccccc2)n(C)c2cc(Br)c(O)c(CN(C)C)c12 39.8 µM [inhibitor, full curve]
O=C(Nc1ccccc1-c1nc2ccccc2s1)c1cccnc1 89.1 µM [inhibitor, single point]
COc1ccc(-c2n[nH]c(C)c2-c2cnn(-c3ccccc3)c2)c(O)c1C 50.1 µM [inhibitor, partial curve]
CSc1ccc(/C=N/Nc2nc(C)cc(=O)[nH]2)cc1 39.8 µM [inhibitor, partial curve]
O=C(C1=NNCC1c1ccccc1)C1OC1c1ccccc1 (stereo not drawn) 56.2 µM [inhibitor, partial curve]
COc1cc(NC(=O)CN(C)CCOc2ccccc2)c(C)cc1[N+](=O)[O-] 63.1 µM [inhibitor, partial curve, poor fit]
COc1ccc(-c2sc3ccc(OC)cc3c2C#Cc2cncn2C)cc1 22.4 µM [inhibitor, full curve]
O=C(c1ccco1)c1coc2c1cc(O)c1ccccc12 22.4 µM [inhibitor, partial curve]
CCOC(=O)c1c(C)[nH]c(C)c1S(=O)(=O)N1CCCC(C(=O)N2CCN(c3cccc(Cl)c3)CC2)C1 (stereo not drawn) 56.2 µM [inhibitor, partial curve]
CCN1CCc2c(OCC(=O)N3N=C(c4cccs4)CC3c3ccc(F)cc3)cccc2C1=O (stereo not drawn) 39.8 µM [inhibitor, single point]
Cc1cnc(NC(=O)CSc2ncc(-c3ccccc3)n2Cc2ccco2)s1 11.2 µM [inhibitor, partial curve]
O=C(NCc1ccccc1Cl)c1ccc2c(c1)NC(=O)C(CS(=O)(=O)Cc1ccc(Cl)cc1)N2 (stereo not drawn) 63.1 µM [inhibitor, partial curve, poor fit]
Cn1cccc1/C=N/N1CCN(c2ccccn2)CC1 56.2 µM [inhibitor, partial curve]
Cc1ccc2nc(-c3ccc(C)s3)c(Nc3ccc4c(c3)OCCO4)n2c1 2.51 µM [inhibitor, partial curve, poor fit]
O=[N+]([O-])c1cc(-c2ccc(/C=N\n3cnnc3)o2)cc([N+](=O)[O-])c1 56.2 µM [inhibitor, partial curve]
CCOc1cc(NC(=S)NCC2CCCO2)c(OCC)cc1NC(=O)c1cccc(C)c1 (stereo not drawn) 20 µM [inhibitor, full curve, poor fit]
CCCOc1ccc(C(=O)NNC(=S)NC(=O)c2cc(-c3ccccc3)nc3ccccc23)cc1 56.2 µM [inhibitor, partial curve, poor fit]
CCOC(=O)c1c(C)c(C(=O)Nc2ccc3c(c2)OCCO3)c(C)n1CC 56.2 µM [inhibitor, partial curve]
COc1cc(NS(=O)(=O)c2ccc(Br)cc2)c(OC)cc1NC(=O)c1ccco1 44.7 µM [inhibitor, partial curve]
COc1ccc(-c2sc3ccc(N4CCOCC4)cc3c2C#CC(C)(C)O)cc1 89.1 µM [inhibitor, single point]
O=C(OCc1ccccc1)N1CCC2CC1c1cc(NCCc3ccccc3)ccc12 (stereo not drawn) 14.1 µM [inhibitor, partial curve]
Cn1ncc2c(Nc3cccc(C#N)c3)ncnc21 2.82 µM [inhibitor, full curve, poor fit]
Nc1nc(CSC(=S)N2CCN(c3ccccc3)CC2)nc(Nc2ccccc2)n1 8.91 µM [inhibitor, full curve]
CC(=O)Nc1ccc(/C(C)=N/Nc2nc(Nc3cccc4ccccc34)nc(N3CCOCC3)n2)cc1 63.1 µM [inhibitor, single point]
O=C(/C(=C(\O)c1ccccc1)c1nc2ccccc2[nH]1)c1ccccc1 39.8 µM [inhibitor, partial curve]
CCn1c(-c2nn(C)c(C)c2Cl)n[nH]c1=S 39.8 µM [inhibitor, single point]
CCc1ccc(C(=O)NC(=S)Nc2ccccc2N2CCOCC2)cc1 44.7 µM [inhibitor, partial curve]
Cc1cccc(/C=N\NC(=O)c2ccc(Cl)cc2)c1O 63.1 µM [inhibitor, partial curve, poor fit]
Cc1nn(Cc2ccccc2)c(C)c1C(=O)NCCN1C(=O)S/C(=C\c2ccccc2)C1=O 79.4 µM [inhibitor, single point]
COc1ccc(-c2csc3ncnc(N4CCN(c5ccccc5[N+](=O)[O-])CC4)c23)cc1 7.94 µM [inhibitor, full curve]
Cc1ccccc1Nc1c([N+](=O)[O-])ccc2c1=NC1(CCCCC1)N=2 3.98 µM [inhibitor, full curve]
Cc1cc(Br)cn2cc(C(=O)O)nc12 28.2 µM [inhibitor, single point]
COc1cc(NC(=O)N2c3ccccc3Sc3ccccc32)c(C(=O)O)cc1OC 56.2 µM [inhibitor, partial curve]
Cc1cc(C)cc(CC(Cc2nc3ccccc3[nH]2)c2nc3ccccc3[nH]2)c1 (stereo not drawn) 79.4 µM [inhibitor, single point]
O=C(Nc1ncc(Cc2ccccc2Cl)s1)c1ccc(-c2cccc([N+](=O)[O-])c2)o1 11.2 µM [inhibitor, full curve, poor fit]
CCCn1c2ccccc2c2cnn(CC(=O)NCCCN(CC)c3ccccc3)c(=O)c21 20 µM [inhibitor, full curve, poor fit]
CCc1ccc(NC(=O)c2ccc(Cn3nc(N4CCN(c5ccccc5)CC4)ccc3=O)o2)cc1 35.5 µM [inhibitor, partial curve]

Potency, active:
COc1ccc(-c2n[nH]c(=S)n2-c2ccccc2C)cc1OC 11.2 µM
CCOC(=O)C1=C(SCC)c2cc3c(n2C1=O)CCCC3 35.5 µM
CCN(CC)c1ccc(C(=C2C=CC(=[N+](CC)CC)C=C2)c2ccc(N(CC)CC)cc2)cc1 1.26 µM
CC(C)OC(=O)c1ccc(NCc2cc(O)ccc2O)cc1 3.98 µM
Cc1c([N+](=O)[O-])cnc(Sc2ccccc2)c1[N+](=O)[O-] 39.8 µM
CCC(C)NCCCCOc1ccc(Cl)cc1C (stereo not drawn) 14.1 µM
COc1ccc(CNCc2ccc3c(c2)OCO3)c(OC)c1OC 0.794 µM
O=C(CN(C1CCCCC1)S(=O)(=O)c1ccc(F)cc1)NCC1CCCO1 (stereo not drawn) 25.1 µM
Cc1ccc(NC(=O)Cc2c(C(=O)O)n(C)c3ccccc23)cc1F 44.7 µM
